Experimental findings from PMC4336329 (PLoS ONE, 2015) are described below.

The whole screen tested about 310,000 compounds, of which about 2,200 (0.71%) showed an effect of 50% or more. The effect is printed as a negative number. The list shows a part of the results.

human ether-à-go-go-related gene (hERG) potassium channel, sequence (Q12809 whole entry, looked up): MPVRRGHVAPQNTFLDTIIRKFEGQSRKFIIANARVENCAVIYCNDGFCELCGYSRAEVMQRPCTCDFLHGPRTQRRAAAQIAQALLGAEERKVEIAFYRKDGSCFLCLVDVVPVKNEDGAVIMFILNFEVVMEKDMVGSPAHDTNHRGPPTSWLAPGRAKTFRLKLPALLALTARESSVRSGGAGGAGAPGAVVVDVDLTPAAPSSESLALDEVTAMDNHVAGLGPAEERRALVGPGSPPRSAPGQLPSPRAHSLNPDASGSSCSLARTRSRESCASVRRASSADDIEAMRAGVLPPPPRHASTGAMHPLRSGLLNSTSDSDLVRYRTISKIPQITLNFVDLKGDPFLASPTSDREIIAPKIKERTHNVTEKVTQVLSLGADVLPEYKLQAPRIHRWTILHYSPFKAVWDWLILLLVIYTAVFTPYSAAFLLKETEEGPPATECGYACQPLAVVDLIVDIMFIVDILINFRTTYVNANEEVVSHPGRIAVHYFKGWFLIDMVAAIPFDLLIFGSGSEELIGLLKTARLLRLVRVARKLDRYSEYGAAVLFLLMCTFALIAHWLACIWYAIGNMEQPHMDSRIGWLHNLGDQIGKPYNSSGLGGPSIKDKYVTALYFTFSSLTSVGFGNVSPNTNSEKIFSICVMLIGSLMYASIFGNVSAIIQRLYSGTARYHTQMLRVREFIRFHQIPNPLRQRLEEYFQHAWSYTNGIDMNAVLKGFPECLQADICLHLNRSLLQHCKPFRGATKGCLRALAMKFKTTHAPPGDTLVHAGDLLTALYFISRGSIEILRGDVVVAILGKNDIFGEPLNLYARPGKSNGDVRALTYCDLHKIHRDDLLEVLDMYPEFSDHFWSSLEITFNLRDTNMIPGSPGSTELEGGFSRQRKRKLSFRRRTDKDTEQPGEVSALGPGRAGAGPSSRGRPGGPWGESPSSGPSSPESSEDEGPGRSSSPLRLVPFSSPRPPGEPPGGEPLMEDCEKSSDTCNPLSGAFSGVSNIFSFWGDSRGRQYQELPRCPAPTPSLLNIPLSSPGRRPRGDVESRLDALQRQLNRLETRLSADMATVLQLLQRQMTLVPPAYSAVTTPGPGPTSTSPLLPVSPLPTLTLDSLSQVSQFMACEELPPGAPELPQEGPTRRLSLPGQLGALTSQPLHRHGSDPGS

This assay has as its target human ether-à-go-go-related gene (hERG) potassium channel (human, UniProt Q12809). In words: primary screen, population patch clamp on CHO cells stably expressing hERG.
As for `CC1CCc2nc(N)c(C#N)c(-c3cccn3C)c2C1` (centres unmarked), the “hERG current change (%, negative = inhibition) at 1uM” value turned out to be 1.2%.
To `COc1cccc(-c2cc(C(=O)Nc3ccccc3)c3ccccc3n2)c1` belongs 12.9%; to `COc1ccc(CCC(=O)NCc2cn3ccccc3n2)cc1`, 4.45%; to `CC1(C)Cc2ccccc2C(NNC(=O)c2ccc(Br)o2)=N1`, 7.93%.
To `Cc1ccc(CNC(=O)CC(C)S(=O)(=O)c2ccc3c(c2)NC(=O)CS3)o1` (centres unmarked) belongs 45.5%.
Consider `CCOC(=O)c1ccc(NS(=O)(=O)c2cn(C)cn2)cc1`, for which the “hERG current change (%, negative = inhibition) at 1uM” value turned out to be 20.3%.
Consider `COc1cccc(Cn2nc3c4cc(F)ccc4n(Cc4ccc(F)cc4)cc-3c2=O)c1`, for which the “hERG current change (%, negative = inhibition) at 1uM” value stood at 17.3%.
To `O=C(O)/C=C/C(=O)Nc1ccc(-n2nccc2C(F)(F)F)cc1` belongs 14.2%; to `CCn1c(=O)c(C(=O)NNC(=O)c2ccccc2Br)c(O)c2ccccc21`, 6.54%.
With `N#Cc1c(Nc2ccccc2)c(C=NCCN2CCOCC2)c[nH]c1=O`, the “hERG current change (%, negative = inhibition) at 1uM” value amounted to 13.9%.
To `Cc1ccc(S(=O)(=O)N2N=C3CCCCC3C2(O)C(F)(F)F)cc1` (centres unmarked) belongs 12.6%.
To `COc1ccc(N(CC(=O)NCc2ccc3c(c2)OCO3)C(=O)c2csnn2)cc1` belongs 11.8%; to `CSc1ccc(CN2CCc3c([nH]c4ccccc34)C2)cc1`, -15.2%; to `CCCCCCC(=O)NNC(=O)c1c(O)c2ccccc2n(CCC)c1=O`, 10.8%.
To `CCN(CC(=O)Nc1cc(Cl)ccc1C)c1ncnc2sc(C)c(C)c12` belongs 5.24%; to `O=C(NC1CCOC1)c1ccc(OC2CCN(CCc3ccccc3)CC2)cc1` (centres unmarked), -0.684%; to `Nc1ccc(SC(F)(F)F)cc1`, 21.1%.
Consider `CCCCCCCn1ccc(=N)cc1.I`, for which the “hERG current change (%, negative = inhibition) at 1uM” value is 6.34%.
To `CN1CCN(Cc2nnc3n2-c2ccc(Cl)cc2C(c2ccccc2)=NC3)CC1.O=CO` belongs -31.9%; to `CC(C)c1ccc(NC(=O)CCc2ccccc2)cc1`, 19.8%.
As to `CC1(C)C2([N+](=O)[O-])CN3CC1([N+](=O)[O-])CN(C2)C3c1ccccc1` (centres unmarked), the “hERG current change (%, negative = inhibition) at 1uM” value is reported as 25.6%.
For the molecule `CC(=O)c1cn(CC(=O)Nc2cccc(C)c2C)c2ccccc12`, the “hERG current change (%, negative = inhibition) at 1uM” value is reported as 6.03%.
To `O=C(NCC1CCCO1)C(=O)NCC1CCCN1S(=O)(=O)c1ccccc1` (centres unmarked) belongs 13.5%.
Regarding `CCOc1ccc(CC(=O)NNC(=S)NC2CCCCC2)cc1OCC`, the “hERG current change (%, negative = inhibition) at 1uM” value is on record as 7.2%.
The figure for `OC(C#CCN1CCCCC1)c1ccccc1` (centres unmarked) is 4.14%; for `COc1ccc(CN2CCCC(C(=O)N3CCc4ccccc4C3)C2)cc1OC` (centres unmarked) it is -37.9%.
